Data as given in paper PMC3120853, “Functional Role of Dimerization of Human Peptidylarginine Deiminase 4 (PAD4)” (PLoS ONE, 2011).

B1: Human PAD4 R8E mutant (enzyme)
chain: not shown
notes: human peptidylarginine deiminase 4 (PAD4) in pQE30; source: E. coli JM109, purified (Ni-NTA)
B2: Human PAD4 D547E mutant (enzyme)
chain: not shown
notes: as for B1
B3: Human PAD4 D547N mutant (enzyme)
chain: not shown
notes: as for B1
B4: Human PAD4 R8A/D547A double mutant (enzyme)
chain: not shown
notes: as for B1
B5: Human PAD4 R8L mutant (enzyme)
chain: not shown
notes: as for B1
B6: Human PAD4 R8E/D547E double mutant (enzyme)
chain: not shown
notes: as for B1
B7: Human PAD4 Y435A mutant (enzyme)
chain: not shown
B8: Human PAD4 Y435N mutant (enzyme)
chain: not shown
notes: as for B1
B9: Human PAD4 R8A mutant (enzyme)
chain: not shown
notes: as for B1
B10: Human PAD4 R8K mutant (enzyme)
chain: not shown
notes: as for B1
B11: Human PAD4 R8Q mutant (enzyme)
chain: not shown
notes: as for B1
B12: Human PAD4 D547A mutant (enzyme)
chain: not shown
notes: as for B1
B13: Human PAD4 Y237A mutant (enzyme)
chain: not shown
notes: as for B1
B14: Human PAD4 E281A mutant (enzyme)
chain: not shown
notes: as for B1
B15: Human PAD4 Y237A/E281A double mutant (enzyme)
chain: not shown
notes: as for B1
B16: Human PAD4 D273A/R544A double mutant (enzyme)
chain: not shown
notes: as for B1
B17: Human PAD4 R8H mutant (enzyme)
chain: not shown
notes: as for B1

Molecular target: the molecule itself
Test: cell-based or functional assay

Protein	k cat of the PAD4 enzyme assay (BAEE substrate, coupled to glutamate dehydrogenase)
B1	7.3 s⁻¹
B2	8.9 s⁻¹
B3	12.2 s⁻¹
B4	10.7 s⁻¹
B5	5.3 s⁻¹
B6	3.3 s⁻¹
B7	5.9 s⁻¹
B8	4 s⁻¹
B9	12.2 s⁻¹
B10	10.8 s⁻¹
B11	12.2 s⁻¹
B12	11.6 s⁻¹

Molecular target: the molecule itself
Test: AUC; sedimentation velocity, 0.1, 0.3 and 1.0 mg/mL; 50 mM Tris-HCl, 250 mM NaCl, pH 7.6, 20°C, with 10 mM Ca2+; dimer to monomers

Protein	Kd
B1	22.3 ± 0.12 µM
B8	19.8 ± 0.19 µM
B10	7.8 ± 0.08 µM

Molecular target: the molecule itself
Test: AUC; sedimentation velocity, 0.1, 0.3 and 1 mg/ml fitted globally (SEDPHAT, monomer-dimer equilibrium model); 50 mM Tris-HCl, 250 mM NaCl, pH 7.6, 20°C, without Ca2+; dimer to monomers

Protein	Kd	stoichiometry N
B1	45.6 ± 0.37 µM	
B2	11.2 ± 0.11 µM	2
B3	4.9 ± 0.05 µM	2
B4	3.9 ± 0.04 µM	2
B5	16.8 ± 0.14 µM	
B6	24 ± 0.23 µM	
B8	33.8 ± 0.24 µM	
B9	9.3 ± 0.08 µM	2
B10	10.2 ± 0.11 µM	2
B11	15.7 ± 0.14 µM	2
B12	6.4 ± 0.07 µM	2
B13	0.29 ± 0.002 µM	2
B14	0.1 ± 0.001 µM	2
B15	0.1 ± 0.001 µM	2
B16	0.68 ± 0.006 µM	2
B17	0.47 ± 0.005 µM	2
